{"source": "paper PMC3258218", "about": "“Assembly and proteolytic processing of mycobacterial ClpP1 and ClpP2” (BMC Biochemistry, 2011)", "proteins": {"B1": {"name": "Mycobacterium tuberculosis ClpP1 with a C-terminal (His)6 tag (enzyme)", "chain": "not shown", "notes": "ClpP1 (Rv2461c), Mycobacterium tuberculosis H37Rv, 200 amino acids; also called ClpP1(His)6; MTB ClpP1; not shown: His6, C-terminal, kept"}}, "molecular_target": "the molecule itself", "assay": "SEC-MALS; SEC-TDA: Superdex 200 with triple detector array (static light scattering at 7° and 90°, refractometer, photometer, viscometer), 25 mM Tris-HCl pH 7.5, 150 mM KCl, 1 mM β-mercaptoethanol, 20°C; 200 μg loaded", "note": "Values joined by “and” are separate entries in the source; they are usually repeats but may differ in a detail not shown here. Equal entries are not always repeated."}
{"protein": "B1", "values": [{"measurement": "stoichiometry N", "value": "1 and 3"}]}
